Experimental data from a collection of fitness landscapes (doi:10.1016/j.celrep.2020.107928).
Whole data set: some 81,000 sequences, median “one-hybrid fitness for binding NBS DNA” near -0.1, cut for the highest 2% near 0.36. The list shows a part of the results.

B1: Caulobacter ParB omega fusion; a variant is named by its letters at X, in order, B8GW30 (parent)
chain: MESVVVGEPGMSEGRRGLGRGLSALLGEVDAAPAQAPGEQLGGSREAPIEILQRNPDQPRRTFREEDLEDLSNSIREKGVLQPILVRPSPDTAGEYQIVAGERAWRAAQRAGLKTVPIMVRELDDLAVLEIGIIENVQRADLNVLEEALSYKVLMEKFERTQENIAQTIGKSXSHVANXMRLLXLPDEVQSYLVSGELTAXHARAIAAAADPVALAKQIIEGGLSVRETEALARKAPNLSAGKSKGGRPPRVKDTDTQALESDLSSVLGLDVSIDHRGSTGTLTITYATLEQLDDLCNRLTRGI

Variants of: B1
Assay: one-hybrid fitness for binding NBS DNA (the Noc-binding site; scaled: cognate 1, non-cognate 0); higher = stronger binding
Settings: with NBS DNA site
In short: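 Fitness here means the log change in variant-to-wild-type read ratio between plasmids sequenced before and after selection. That scale was set so cognate equals 1 and non-cognate equals 0. The selection was a bacterial one-hybrid screen of Caulobacter ParB libraries, four specificity codons randomised, in E. coli USO carrying a HIS3 reporter with the site 19 bp from the promoter, grown 48 hours at 37°C on M9-minus-histidine with 0.1 mM IPTG and 5 mM 3-AT.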

Row | Variant | one-hybrid fitness for binding NBS DNA
1 | HTYL | ≤ 0.2
2 | QPDY | ≤ 0.2
3 | YLEF | ≤ 0.2
4 | PDAY | ≤ 0.2
5 | LSCF | ≤ 0.2
6 | QSQL | ≤ 0.2
7 | CAGS | ≤ 0.2
8 | AVKF | ≤ 0.2
9 | CDPV | ≤ 0.2
10 | RREG | ≤ 0.2
11 | IKKT | ≤ 0.2
12 | CKPA | ≤ 0.2
13 | MVPF | ≤ 0.2
14 | LTVF | ≤ 0.2
15 | PFYV | ≤ 0.2
16 | TRRS | 0.38
17 | HYKS | ≤ 0.2
18 | VMWR | ≤ 0.2
19 | TTGL | ≤ 0.2
20 | ETNN | ≤ 0.2
21 | SCHG | ≤ 0.2
22 | STMV | ≤ 0.2
23 | KRHC | ≤ 0.2
24 | TAPW | ≤ 0.2

Row | Variant | one-hybrid fitness for binding NBS DNA
25 | RCWI | ≤ 0.2
26 | IAKK | ≤ 0.2
27 | SRSW | ≤ 0.2
28 | MTHD | ≤ 0.2
29 | DGNV | ≤ 0.2
30 | FNRH | ≤ 0.2
31 | LVVI | ≤ 0.2
32 | FREG | ≤ 0.2
33 | SPES | ≤ 0.2
34 | SDLR | ≤ 0.2
35 | NCPG | ≤ 0.2
36 | TVAS | ≤ 0.2
37 | SVTK | ≤ 0.2
38 | PGSA | ≤ 0.2
39 | TWKW | ≤ 0.2
40 | LVRT | ≤ 0.2
41 | CNQG | ≤ 0.2
42 | PAST | ≤ 0.2
43 | WTDV | ≤ 0.2
44 | GDQE | ≤ 0.2
45 | QVTE | ≤ 0.2
46 | QACH | ≤ 0.2
47 | RWGT | ≤ 0.2
48 | VLPN | ≤ 0.2

Row | Variant | one-hybrid fitness for binding NBS DNA
49 | ILNT | ≤ 0.2
50 | RILI | ≤ 0.2
51 | MESR | ≤ 0.2
52 | VTRL | ≤ 0.2
53 | SENR | ≤ 0.2
54 | SRLH | ≤ 0.2
55 | HRDG | ≤ 0.2
56 | AQHG | ≤ 0.2
57 | RPCA | ≤ 0.2
58 | GMLT | ≤ 0.2
59 | LATF | ≤ 0.2
60 | LGYW | ≤ 0.2
61 | GCYS | ≤ 0.2
62 | PASM | ≤ 0.2
63 | RVRS | 0.577
64 | NGIA | ≤ 0.2
65 | DTEI | ≤ 0.2
66 | NKRM | ≤ 0.2
67 | KTMM | ≤ 0.2
68 | DNNN | ≤ 0.2
69 | DNSI | ≤ 0.2
70 | VGHC | ≤ 0.2
71 | RSFT | ≤ 0.2
72 | GNKF | ≤ 0.2

Row | Variant | one-hybrid fitness for binding NBS DNA
73 | RPEC | ≤ 0.2
74 | QKRW | 0.226
75 | AKWG | ≤ 0.2
76 | KTNY | ≤ 0.2
77 | ELHL | ≤ 0.2
78 | LSVG | ≤ 0.2
79 | AAQN | ≤ 0.2
80 | TTIR | ≤ 0.2
81 | CRLS | ≤ 0.2
82 | EATF | ≤ 0.2
83 | RTSP | ≤ 0.2
84 | FDRS | ≤ 0.2
85 | DLLS | ≤ 0.2
86 | DRSG | ≤ 0.2
87 | CSYL | ≤ 0.2
88 | SCWC | ≤ 0.2
89 | MYQS | ≤ 0.2
90 | SVEL | ≤ 0.2
91 | TGPP | ≤ 0.2
92 | ARKC | ≤ 0.2
93 | YKST | ≤ 0.2
94 | DVGA | ≤ 0.2
95 | SFVF | ≤ 0.2
96 | HTDT | ≤ 0.2

Row | Variant | one-hybrid fitness for binding NBS DNA
97 | LLNG | ≤ 0.2
98 | TYQS | ≤ 0.2
99 | NPWR | ≤ 0.2
100 | RDGL | ≤ 0.2
101 | WVSG | ≤ 0.2
102 | TNKA | ≤ 0.2
103 | RYIM | ≤ 0.2
104 | PKSK | ≤ 0.2
105 | FRAP | ≤ 0.2
106 | QYAH | ≤ 0.2
107 | STRH | ≤ 0.2
108 | RDPI | ≤ 0.2
109 | LATN | ≤ 0.2
110 | LLGI | ≤ 0.2
111 | SHSV | ≤ 0.2
112 | NTDF | ≤ 0.2
113 | CTQT | ≤ 0.2
114 | NQLT | ≤ 0.2
115 | THQL | ≤ 0.2
116 | AGQF | ≤ 0.2
117 | QSDM | ≤ 0.2
118 | PPQN | ≤ 0.2
119 | AGKG | ≤ 0.2
120 | ERKH | ≤ 0.2

Row | Variant | one-hybrid fitness for binding NBS DNA
121 | KTRW | ≤ 0.2
122 | NAKR | ≤ 0.2
123 | QEHA | ≤ 0.2
124 | AKGD | ≤ 0.2
125 | YKKT | 0.225
126 | RYQM | ≤ 0.2
127 | AKQR | ≤ 0.2
128 | KKRR | 0.47
129 | TIEP | ≤ 0.2
130 | REPE | ≤ 0.2
131 | QYAE | ≤ 0.2
132 | NGLR | ≤ 0.2
133 | EADC | ≤ 0.2
134 | KPRA | ≤ 0.2
135 | SPHA | ≤ 0.2
136 | TSEA | ≤ 0.2
137 | VDIC | ≤ 0.2
138 | AGPW | ≤ 0.2
139 | RQAP | ≤ 0.2
140 | QSGR | 0.547
141 | ARHK | ≤ 0.2
142 | ATSK | ≤ 0.2
143 | NTGR | ≤ 0.2
144 | SVDP | ≤ 0.2

Row | Variant | one-hybrid fitness for binding NBS DNA
145 | RWQQ | ≤ 0.2
146 | LMVL | ≤ 0.2
147 | ERFS | ≤ 0.2
148 | WITC | ≤ 0.2
149 | CIQC | ≤ 0.2
150 | WRDL | ≤ 0.2
151 | GRRL | ≤ 0.2
152 | DDLG | ≤ 0.2
153 | AERG | ≤ 0.2
154 | MRYS | ≤ 0.2
155 | SHGY | ≤ 0.2
156 | VHNR | ≤ 0.2
157 | TIRE | ≤ 0.2
158 | NLDM | ≤ 0.2
159 | HQQC | ≤ 0.2
160 | MAFF | ≤ 0.2
161 | TTWF | ≤ 0.2
162 | RMCG | ≤ 0.2
163 | AVMT | ≤ 0.2
164 | DYSI | ≤ 0.2
165 | ITHA | ≤ 0.2
166 | KTQR | ≤ 0.2
167 | RPEF | ≤ 0.2
168 | GIWG | ≤ 0.2

Row | Variant | one-hybrid fitness for binding NBS DNA
169 | THET | ≤ 0.2
170 | LHLN | ≤ 0.2
171 | SQQD | ≤ 0.2
172 | LSGR | ≤ 0.2
173 | YNKM | ≤ 0.2
174 | CRDD | ≤ 0.2
175 | RVME | ≤ 0.2
176 | GNGC | ≤ 0.2
177 | TVFN | ≤ 0.2
178 | TQMF | ≤ 0.2
179 | LAFV | ≤ 0.2
180 | KDGG | ≤ 0.2
181 | HPKM | ≤ 0.2
182 | MISS | ≤ 0.2
183 | QTVS | 0.406
184 | FHRI | ≤ 0.2
185 | LGTC | ≤ 0.2
186 | SFFA | ≤ 0.2
187 | VSNR | ≤ 0.2
188 | FAPS | ≤ 0.2
189 | LLRM | ≤ 0.2
190 | LHHN | ≤ 0.2
191 | KSIS | ≤ 0.2
192 | ADVS | ≤ 0.2

Row | Variant | one-hybrid fitness for binding NBS DNA
193 | QIAV | ≤ 0.2
194 | RLAF | ≤ 0.2
195 | PELM | ≤ 0.2
196 | TGSH | ≤ 0.2
197 | LDNR | ≤ 0.2
198 | NVVT | ≤ 0.2
199 | LAHD | ≤ 0.2
200 | QGQT | ≤ 0.2
201 | NKMC | ≤ 0.2
202 | EMNC | ≤ 0.2
203 | YPYT | ≤ 0.2
204 | MAVI | ≤ 0.2
205 | WRTV | ≤ 0.2
206 | EFRV | ≤ 0.2
207 | SRWL | ≤ 0.2
208 | SQEG | ≤ 0.2
209 | IGHR | ≤ 0.2
210 | THKR | 0.322
211 | VELT | ≤ 0.2
212 | VNKC | ≤ 0.2
213 | TLML | ≤ 0.2
214 | CPAL | ≤ 0.2
215 | NAPC | ≤ 0.2
216 | CPVD | ≤ 0.2

Row | Variant | one-hybrid fitness for binding NBS DNA
217 | CQKG | ≤ 0.2
218 | LKNE | ≤ 0.2
219 | HNFL | ≤ 0.2
220 | TAPQ | ≤ 0.2
221 | FMSC | ≤ 0.2
222 | MCNV | ≤ 0.2
223 | WAMC | ≤ 0.2
224 | SFDS | ≤ 0.2
225 | RVIN | ≤ 0.2
226 | KYGT | ≤ 0.2
227 | LDDA | ≤ 0.2
228 | LGAL | ≤ 0.2
229 | IAQI | ≤ 0.2
230 | QYAR | 0.517
231 | RDAK | ≤ 0.2
232 | GTHG | ≤ 0.2
233 | ALNI | ≤ 0.2
234 | ESMM | ≤ 0.2
235 | VTCF | ≤ 0.2
236 | YGPE | ≤ 0.2
237 | QANR | 0.583
238 | CFRE | ≤ 0.2
239 | WALV | ≤ 0.2
240 | PLGD | ≤ 0.2

Row | Variant | one-hybrid fitness for binding NBS DNA
241 | MPKW | ≤ 0.2
242 | RTHM | ≤ 0.2
243 | RRYP | ≤ 0.2
244 | PSVH | ≤ 0.2
245 | YMKS | ≤ 0.2
246 | DRRV | ≤ 0.2
247 | ATYT | ≤ 0.2
248 | EVCT | ≤ 0.2
249 | GTNG | ≤ 0.2
250 | VRAY | ≤ 0.2
251 | RNDK | ≤ 0.2
252 | LRKW | ≤ 0.2
253 | QRGE | 0.286
254 | MSIR | ≤ 0.2
255 | QSSF | ≤ 0.2
256 | CPRA | ≤ 0.2
257 | SQSA | ≤ 0.2
258 | MMHC | ≤ 0.2
259 | RYQW | 0.361
260 | PGIT | ≤ 0.2
261 | DNEL | ≤ 0.2
262 | RPEM | ≤ 0.2
263 | VPHL | ≤ 0.2
264 | WRQT | ≤ 0.2

Row | Variant | one-hybrid fitness for binding NBS DNA
265 | AYKV | ≤ 0.2
266 | CGIG | ≤ 0.2
267 | TGDT | ≤ 0.2
268 | TQTD | ≤ 0.2
269 | CLQT | ≤ 0.2
270 | ARCR | ≤ 0.2
271 | RKWV | ≤ 0.2
272 | AYSE | ≤ 0.2
273 | SWKV | ≤ 0.2
274 | SKYC | ≤ 0.2
275 | WLRS | ≤ 0.2
276 | PEFC | ≤ 0.2
277 | PNKV | ≤ 0.2
278 | SHYR | ≤ 0.2
279 | KQID | ≤ 0.2
280 | SCGC | ≤ 0.2
281 | SSDW | ≤ 0.2
282 | RNNE | ≤ 0.2
283 | CKQR | ≤ 0.2
284 | IDKT | ≤ 0.2
285 | TMGY | ≤ 0.2
286 | EDTS | ≤ 0.2
287 | TRKN | 0.212
288 | KFAP | ≤ 0.2

Row | Variant | one-hybrid fitness for binding NBS DNA
289 | DAHR | ≤ 0.2
290 | RQIV | ≤ 0.2
291 | KHML | ≤ 0.2
292 | NMTH | ≤ 0.2
293 | DDTS | ≤ 0.2
294 | TYDV | ≤ 0.2
295 | RVQP | ≤ 0.2
296 | PLCE | ≤ 0.2
297 | SLAR | ≤ 0.2
298 | QQDP | ≤ 0.2
299 | RADA | ≤ 0.2
300 | IMGS | ≤ 0.2
301 | KFQG | ≤ 0.2
302 | ISTM | ≤ 0.2
303 | QHHF | ≤ 0.2
304 | TVRN | ≤ 0.2
305 | VKPR | ≤ 0.2
306 | CVYC | ≤ 0.2
